In PubChem BioAssay AID924 (National Center for Advancing Translational Sciences (NCATS), 2007):
Among all 130,000 compounds or so, about 1,200 (0.92%) were called active. This list was built around the results that the source calls inconclusive (neither active nor inactive); the mix of calls is not that of the screen. Calls follow the shape of the dose curve; as a rule, active = well fitted cell-killing curve with a large enough effect; inconclusive = small, poorly fitted or top-dose-only effect; inactive = no such curve, though single readings can be large or run the other way. A potency beside an inconclusive call is a rough fit, not a confirmed value.

Experiment: qHTS Screen for Compounds that Selectively Target Cancer Cells with p53 Mutations: Cytotoxicity of p53ts Cells at the Permissive Temperature; also: nearly all actives have a fitted effect of over 55% in size
Conditions: H1299-p53A138V at 32C, ATP luminescence viability, 24 h; series mostly up to 46.1 µM
In short: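 Viability by ATPlite luminescence after 24 h compound treatment (up to 46 uM) at the permissive 32C. Cells are H1299 carrying p53 A138V. Scale runs from DMSO basal to 100 uM tamoxifen as full kill; AC50 from Hill fits.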
Potency is read from the fitted curve at half-maximal effect; tags tell the direction and shape of the fitted curve.

Row | Structure (SMILES) | Potency
1 | O=C(Nc1ccc2c(c1)OCCO2)c1ccc(NC(=O)C2CCCO2)cc1 (stereo not drawn) | inconclusive: 15.8 µM [cytotoxic, partial curve]
2 | O=C(CCC(=O)c1ccc[nH]1)c1ccc(Cl)cc1 | inactive
3 | COc1ccc(CC(=O)Nc2cccc(-c3nnc(-c4cccc(C)c4)o3)c2)cc1OC | active: 12.6 µM
4 | Cc1ccc(-c2nnc(SCc3ccccc3F)o2)cc1 | inconclusive: 12.6 µM [cytotoxic, partial curve]
5 | CCCCCCC1C(C#N)=C(N)OC2=C1C(=O)CCC2 (stereo not drawn) | active: 12.6 µM
6 | Cc1ccc(/C=N/c2sc3c(c2C#N)CCC3)s1 | inconclusive: 3.98 µM [cytotoxic, partial curve]
7 | COC(=O)C1=C(c2ccccc2)c2ccccc2S(=O)(=O)N1CC(=O)Nc1ccc(F)c(F)c1 | inconclusive: 12.6 µM [cytotoxic, single point]
8 | COc1ccc(NC(=O)Cn2nnc(-c3ccccc3NC(=O)c3ccco3)n2)cc1 | inconclusive: 25.1 µM [cytotoxic, single point]
9 | COC(=O)c1sc(NC(=O)c2ccc(OC)cc2OC)nc1C | active: 0.398 µM
10 | COc1ccc(C(c2nnnn2Cc2ccc(F)cc2)N2CCN(c3ccccc3)CC2)cc1 (stereo not drawn) | inactive
11 | c1ccc(Cn2nnc3c(N4CCCC4)ncnc32)cc1 | inactive
12 | Cc1ccc(C(C)C)c(OCC(=O)N2CCC(c3nc4ccccc4o3)CC2)c1 | inconclusive: 25.1 µM [cytotoxic, single point]
13 | CCOc1ccc2nc(NC(=O)CS(=O)(=O)c3ccc(Cl)cc3)sc2c1 | inconclusive: 7.94 µM [cytotoxic, partial curve]
14 | O=C(NCc1ccccc1)c1ccc(NC(=O)c2nsc3ccccc23)cc1 | inactive
15 | COc1ccccc1CNC(=O)c1ccc(CS(=O)(=O)c2ccccc2C)o1 | inactive
16 | Cc1ccc(CNC(=O)Cc2coc3cc(C)cc(C)c23)cc1 | inactive
17 | Cc1nn(-c2ccccn2)c2c1-c1nc(N)ncc1CC2 | inconclusive: 10 µM [cytotoxic, partial curve]
18 | Cc1cccc(N2CCN(C(=O)CSCc3ccc(F)cc3)CC2)c1C | inconclusive: 0.112 µM [cytotoxic, partial curve, poor fit]
19 | Cc1c(C(=O)OCC(=O)c2ccc3c(c2)OCCO3)oc2ccccc12 | inactive
20 | O=C(CSc1ncc(-c2ccccc2)[nH]1)Nc1ccc(Cl)cc1 | inconclusive: 35.5 µM [cytotoxic, single point]
21 | Cc1cc(N2CCN(C)CC2)nc2ccc(NC(=O)Nc3cccc(Cl)c3)cc12 | inconclusive: 31.6 µM [cytotoxic, single point]
22 | Cc1ccccc1Nc1nn2c(=O)c3ccc(C(=O)NCCc4ccc(Cl)cc4)cc3nc2s1 | active: 15.8 µM
23 | COc1ccc(NC(=O)c2ccc3nccnc3c2)cc1 | inconclusive: 11.2 µM [cytotoxic, partial curve]
24 | CCCCOc1cccc(C(=O)Nc2cc(NC(=O)c3ccco3)ccc2OC)c1 | inactive

Row | Structure (SMILES) | Potency
25 | COc1ccc(-c2cnc(C)o2)cc1S(=O)(=O)Nc1c(C)cc(C)cc1C | inactive
26 | CC(=O)N1CCC2(CCCN(c3ccc(-c4ccccc4)cc3)C2)CC1 | inactive
27 | COc1cccc(OCc2nc3ccccc3[nH]2)c1 | active: 15.8 µM
28 | CCOC(=O)CNc1ncnc2nc[nH]c12 | active: 7.94 µM
29 | CCSC1=C(C#N)C2(CCCCC2)C(C#N)=C(N)N1 | inconclusive: 10 µM [cytotoxic, partial curve]
30 | C=CCOc1ccc2c(OC)c3ccoc3nc2c1OC | inconclusive: 10 µM [cytotoxic, partial curve]
31 | COc1ccc(-c2nc(-c3ccc(Br)cc3)no2)c(OC)c1 | inconclusive: 10 µM [cytotoxic, partial curve]
32 | Cc1ccccc1NC(=O)Cn1cccc1 | inactive
33 | COc1cccc(CNC(=O)c2ccc3c(=O)n4nc(Nc5ccccc5)sc4nc3c2)c1 | inconclusive: 2.51 µM [cytotoxic, full curve, poor fit]
34 | COc1ccc(-n2c(=O)c(-c3cccs3)nc3cnc(N4CCNCC4)nc32)cc1 | inconclusive: 31.6 µM [cytotoxic, single point]
35 | COc1ccc(-n2cc(-c3ccccc3)c3c(NC4CCCC4)ncnc32)cc1 | inactive
36 | O=C(c1ccc(Cl)c([N+](=O)[O-])c1)N(Cc1ccccc1)C1CCS(=O)(=O)C1 (stereo not drawn) | inconclusive: 3.55 µM [cytotoxic, partial curve, poor fit]
37 | O=C(CSc1nnc(-c2ccccc2)o1)Nc1ccccc1F | active: 12.6 µM
38 | COC(=O)c1c(NC(=O)c2nc3ccccc3s2)sc2c1CCN(C(C)=O)C2 | inconclusive: 31.6 µM [cytotoxic, single point]
39 | Cc1ccc(-c2nnn(CC(=O)N(Cc3cccs3)C(C(=O)NC(C)(C)C)c3ccco3)n2)o1 (stereo not drawn) | inactive
40 | CC1(C)CC(=O)c2cc(C(=O)NCc3ccco3)c(=O)n(-c3ccc(Cl)cc3)c2C1 | inactive
41 | COc1ccc2nc(N3CCCCC3)c(C#N)cc2c1 | inconclusive: 20 µM [cytotoxic, single point]
42 | Cc1ccc(NC(=O)Cn2c(=O)oc3cc(S(=O)(=O)N4CCCCC4)ccc32)c(Cl)c1 | inconclusive: 11.2 µM [cytotoxic, single point]
43 | COc1c(O)c(O)cc2c1oc1c3ccccc3oc(=O)c21 | inconclusive: 31.6 µM [cytotoxic, single point]
44 | COc1ccccc1Nc1nn2c(=O)c3ccc(C(=O)NCc4ccc(F)cc4)cc3nc2s1 | active: 3.16 µM
45 | CCOC(=O)C(Cc1c[nH]c2ccccc12)NC(=O)COc1ccc(Cl)c(C)c1 (stereo not drawn) | inconclusive: 35.5 µM [cytotoxic, single point]
46 | COc1ccc(C(c2c(O)ccc3ccccc23)N2CCOCC2)c(OC)c1 (stereo not drawn) | inconclusive: 31.6 µM [cytotoxic, single point]
47 | COc1ccc(-c2noc(-c3cccc(OC)c3OC)n2)cc1OC | inconclusive: 12.6 µM [cytotoxic, partial curve]
48 | O=C(CCSCCC(=O)NCc1cccs1)NCc1cccs1 | inactive
